Among all 52,000 compounds or so, about 1,700 (3.3%) were called active. Rule as the data show it: active = survival mostly below about 52% (no sharp cut-off); inactive = mostly above about 56%. This is one part of the list.

From PubChem BioAssay AID463173 (ICCB-Longwood Screening Facility, Harvard Medical School, 2010) come the findings set out here.

The assay deals with Wild type. The experiment in a line: S. aureus survival, RN4220 and DeltatarO strains – OD600, teichoic acid synthesis inhibitors, primary screen (AID 463173). Conditions: S. aureus RN4220 wild type/DeltatarO growth, OD600, 18 h, hits give low values, screened at 18.75 µg/mL (by protocol).
As for `COC(=O)c1c(NC(=O)c2ccccc2C(=O)O)sc2c1CCCC2`, the survival is inactive: 110%.

As to `COc1ccc(Cn2ccc3nc(C)c(C(=O)Nc4ccc(C)c(F)c4)cc3c2=O)cc1`, the survival is inactive: 47%.

Regarding `Cc1ccc(-c2cc(C(=O)NCc3ccccc3)c3c(-c4ccc(C)cc4)[nH]nc3n2)cc1`, the survival is inactive: 75%.

As for `Cc1c(Cl)cccc1NC(=O)Cn1nc(C)c2sc3ccccc3c2c1=O`, the survival was inactive: 87%.

`Cc1ccc(C)c(S(=O)(=O)c2nnn3c2nc(Nc2ccc(F)c(Cl)c2)c2sccc23)c1`: the survival is inactive: 38%.

On to `Cc1nc(SCC(=O)Nc2ccc(Br)cc2)[nH]c(=O)c1Cc1ccccc1`, for which the survival is inactive: 48%.

As to `COc1ccc(N2CCN(C(=O)c3ccc4c(c3)CCN4S(C)(=O)=O)CC2)cc1`, the survival was inactive: 92%.

As to `CCSc1nc2c(c(=O)[nH]c(=O)n2C)n1CC(O)COc1ccc(Cl)cc1` (configuration not stated), the survival is inactive: 161%.

For the compound `CCCCOC(=O)c1ccc(NC(=O)Cc2coc3ccc(C(C)C)cc23)cc1`, the survival was inactive: 88%.

For the compound `Nc1nc(NC(=O)CCC(=O)O)nn1-c1ccccc1`, the survival was inactive: 105%.

Turning to `Cc1ccc2c(c1)N(C(=O)N1CCC(C(=O)NCc3ccco3)CC1)CC(C)O2` (configuration not stated), the survival was inactive: 98%.

Turning to `Cc1ccc(S(=O)(=O)CCC(=O)N2CCN(c3nc4c(C)c(Cl)ccc4s3)CC2)cc1`, the survival is inactive: 68%.

For the compound `CCc1ccc(OCC(=O)NCc2nc(-c3cccc(C)c3)no2)c(Br)c1`, the survival was inactive: 117%.

Consider `Cc1cccc(C(=O)Nc2nc(-c3ccc(Br)cc3)ns2)c1`, for which the survival was inactive: 83%.

As to `COc1cc(C(=O)N2CCc3c([nH]c4ccccc34)C2c2ccccc2)cc(OC)c1OC` (configuration not stated), the survival was inactive: 54%.

For the compound `COc1ccccc1OCCn1c(-c2ccc(Br)cc2)nc2ccccc2c1=O`, the survival is inactive: 80%.

Take `Cc1cccc(N(CC(=O)NCCSc2ccc(Cl)cc2)S(=O)(=O)c2ccccc2)c1C`: the survival is inactive: 75%.

Take `CCOC(=O)C1CCN(C(=O)Cn2ncc3c([nH]c4ccc(C)cc43)c2=O)CC1`: the survival is inactive: 71%.

Turning to `CC(=O)N1CCC2(CC1)OC(=O)C(C)=C2C(=O)Nc1ccccc1C(F)(F)F`, the survival was inactive: 88%.

Consider `O=C(CNCC1CCCO1)Nc1ccccc1-n1cccc1` (configuration not stated), for which the survival is inactive: 108%.

Turning to `CSc1ncc(C(=O)N2CCN(c3ccc(F)cc3)CC2)c(C)n1`, the survival is inactive: 88%.

Take `CCOC(=O)C1CCC(CN(Cc2c(Cl)cccc2Cl)S(=O)(=O)c2ccc(F)cc2)CC1` (configuration not stated): the survival was inactive: 49%.

Regarding `Cc1ccc(C)c(N2CCN(C(=O)c3cc(S(=O)(=O)N4CCCC4)cn3C)CC2)c1`, the survival is inactive: 86%.

As for `COc1cccc(-c2nn(C)c3sc(C(=O)N4CCN(c5cccc(C)c5)C(C)C4)cc23)c1` (configuration not stated), the survival was inactive: 72%.

As for `COc1ccccc1CCNC(=O)Cn1ccc2cc(S(=O)(=O)N3CCCCCC3)ccc21`, the survival was inactive: 76%.

For the compound `CCc1nnc(SCc2nc(-c3ccc(OC)cc3)oc2C)c2cc3sccc3n12`, the survival is inactive: 86%.

Consider `Cc1ccc(OCCCCn2c(CCNC(=O)C(C)(C)C)nc3ccccc32)cc1`, for which the survival is inactive: 76%.

Turning to `Cc1ccccc1NC(=O)CN1C(=O)CCn2nc(-c3cccn3C)cc21`, the survival is inactive: 59%.

With `Cc1sc2c(c1C)c(=O)n(-c1cccc(C(F)(F)F)c1)c(=O)n2Cc1ccccc1C#N`, the survival is inactive: 124%.

Regarding `CCn1cc(C(=O)NCc2ccccc2Cl)c(=O)c2cc(S(=O)(=O)N3CCCCC3)ccc21`, the survival was inactive: 80%.

As for `CCOc1ccc(N(CC)C(=O)CSc2n[nH]c(-c3ccccc3)n2)cc1`, the survival was inactive: 67%.

In the case of `CC(=O)Nc1ccc(C(=O)NCCN2CCOCC2)cc1`, the survival was inactive: 103%.

For the compound `Cc1ncc(CO)c2c1Oc1nc(-c3ccccc3)nc(SCC(=O)Nc3cccc(C(F)(F)F)c3)c1C2`, the survival is inactive: 110%.

Regarding `O=C(CSc1n[nH]c(-c2ccccc2Cl)n1)N1CCN(c2ccccc2F)CC1`, the survival is inactive: 123%.

With `COc1ccc(-c2coc3c2c(C)cc2oc(=O)cc(C)c23)cc1`, the survival is inactive: 83%.

Take `Cc1oc(-c2ccc(C(=O)NCc3ccccc3)cc2)nc1CS(=O)(=O)c1ccccc1`: the survival is inactive: 75%.

Turning to `O=C(NC1CCCC1)c1ccc2c(c1)N(Cc1ccccc1F)C(=O)c1ccccc1S2`, the survival was inactive: 68%.

As for `O=C(Cc1ccccc1)Nc1cccc(-c2nc3cccnc3s2)c1`, the survival is inactive: 93%.

On to `CC1=C(C(=O)Nc2cccnc2)C(c2ccccc2)n2nc(SCc3ccccc3F)nc2N1` (configuration not stated), for which the survival is inactive: 146%.

On to `Nc1ccc(-c2ccc(N)cc2C(F)(F)F)c(C(F)(F)F)c1`, for which the survival was inactive: 117%.

Regarding `COc1ccc(CCN2C(=O)N(c3ccc(F)cc3)C(=O)C2CC(=O)Nc2ccc(F)c(F)c2)cc1` (configuration not stated), the survival was inactive: 50%.

On to `CCOc1ccc(N(CC(=O)NCc2ccc(Cl)cc2)S(=O)(=O)c2c(C)noc2C)cc1`, for which the survival is inactive: 86%.

For `Cc1c(NC(=O)c2ccc(N3CCC(C)CC3)c([N+](=O)[O-])c2)cccc1-c1nc2ccccc2o1`, the survival is inactive: 72%.

With `Cc1ccc(C(=O)Nc2ccc(OCc3cc(=O)n4c5c(sc4n3)CCCC5)cc2)cc1`, the survival is inactive: 88%.

For the compound `Cc1cccc(N2CCN(C(=O)c3oc(=O)c4ccccc4c3-c3ccccc3)CC2)c1C`, the survival was inactive: 76%.

As to `COCCCNC(=O)C1CCC(Cn2c(=O)c3sccc3n(Cc3ccc(F)cc3)c2=O)CC1` (configuration not stated), the survival was inactive: 73%.

As for `Cc1cc(NC(=O)Nc2csc3c2CCCC3)ccc1Br`, the survival was inactive: 46%.

Take `COC(=O)c1c(C)sc(-c2c(-c3cccc(Cl)c3)[nH]c3c2c(=O)[nH]c(=O)n3C)c1O`: the survival is inactive: 85%.

Regarding `O=C(O)CN1C(=O)CCC1=O`, the survival is inactive: 100%.

With `Cc1cc(C)cc(NC(=O)c2sc3nc(-c4cc5ccccc5oc4=O)[nH]c(=O)c3c2C)c1`, the survival was inactive: 81%.

`Cc1ccc(OCc2ccc(-c3nc(C#N)c(N4CCC(C)CC4)o3)o2)cc1`: the survival is inactive: 83%.

As to `COc1ccc(-c2noc(N3CCN(c4cccc(C)c4C)CC3)n2)cc1OC`, the survival is inactive: 69%.

For `CCc1cccc(C)c1NC(=O)C(C)Sc1nc2c(c(=O)[nH]1)CCCC2` (configuration not stated), the survival was inactive: 106%.

As for `COc1ccccc1C(=O)Nc1nnc(SCc2cc(=O)n3ccc(C)cc3n2)s1`, the survival was inactive: 57%.

As to `COc1ccc(CCNC(=O)CCc2c(C)nc3c(c(C)nn3-c3ccccc3)c2C)c(OC)c1`, the survival was inactive: 78%.

For the compound `CCCNC(=O)CCC(=O)N1Cc2ccccc2Oc2ncccc21`, the survival is inactive: 129%.

`c1ccc(-c2nc(N3CCCCC3)c3ccccc3n2)cc1`: the survival is inactive: 130%.

Consider `COc1ccc(C(=O)CN2C(=O)N(c3cc(C)ccc3C)S(=O)(=O)c3ccccc32)cc1`, for which the survival is inactive: 70%.

Regarding `CCc1ccccc1NC(=O)C1CCN(C2=NS(=O)(=O)C(c3ccc(C)c(C)c3)=C2C)CC1`, the survival is inactive: 87%.

Regarding `CCOC(=O)c1c(C)oc2nc(C)nc(NC(C)c3ccccc3)c12` (configuration not stated), the survival was inactive: 84%.

`CCOC(=O)c1cc2c(ccn2C)n1Cc1c(Cl)cccc1Cl`: the survival was inactive: 101%.

Take `Cc1cccc(OCC(=O)Nc2ccc3c(c2)nc(CCNC(=O)c2ccco2)n3C)c1`: the survival is inactive: 121%.

Consider `Cc1nc2c3ccccc3nc(NNC(=O)CCC(=O)N3CCN(c4ccccc4)CC3)n2n1`, for which the survival is inactive: 81%.

In the case of `CC1=C(C(=O)OCc2ccc(C)cc2)C(c2ccccc2Cl)CC(=O)N1` (configuration not stated), the survival was inactive: 75%.

`COc1ccc(Br)cc1CNC(=O)c1ccc2c(c1)nc1n2CCCCC1`: the survival was inactive: 70%.

Regarding `CCc1ccc(-c2cc3c(N4CCN(c5ccccc5)CC4)nccn3n2)cc1`, the survival is inactive: 79%.

`COc1cccc(C(=O)n2nc(-c3ccco3)nc2NCc2cccs2)c1`: the survival is inactive: 83%.

Consider `Cc1cccc(CN2C(=O)c3ccccc3S(=O)(=O)c3ccc(C(=O)N4CCN(c5cc(C)ccc5C)CC4)cc32)c1`, for which the survival is inactive: 91%.

As for `COc1ccc(NC(=O)N2CCN(c3cc(-c4noc(C)n4)ccc3C)CC2)c(OC)c1`, the survival was inactive: 133%.

As for `COc1ccc(NS(=O)(=O)c2ccc(NS(=O)(=O)c3ccc4c(c3)OCCO4)cc2)cc1`, the survival was inactive: 100%.

Consider `CC(C)(C)C1CCc2c(sc(NC(=O)c3ccncc3)c2C(=O)Nc2ccccc2Cl)C1` (configuration not stated), for which the survival was inactive: 84%.

`COc1cccc(N2CCN(Cc3nnc(-c4ccc5c(c4)OCO5)o3)CC2)c1`: the survival is inactive: 102%.

On to `COc1ccc(CNCC(=O)N2CCN(C(=O)CNCc3ccc(OC)cc3)CC2)cc1`, for which the survival was inactive: 98%.

Consider `Cc1cccc(-c2nc3nc(C)cc(N4CCN(c5ccccc5)CC4)n3n2)c1`, for which the survival was inactive: 88%.

Regarding `COc1ccc(N2CCN(C(=O)CCn3cnc4onc(-c5ccc(F)cc5)c4c3=O)CC2)cc1`, the survival was inactive: 133%.

`COc1ccc(N(CC(=O)NCc2ccc(C)cc2)S(=O)(=O)c2c(C)[nH]c(=O)[nH]c2=O)cc1`: the survival is inactive: 137%.

On to `Cc1cc(C)cc(N2CCn3c2nc2c3c(=O)n(CCc3ccccc3)c(=O)n2C)c1`, for which the survival was inactive: 84%.

As for `Cc1c(C(=O)NCc2ccccc2Cl)sc2nc3n(c(=O)c12)CCC3`, the survival was inactive: 112%.

Turning to `Cc1ccc(-c2nc3c4ccccc4n(Cc4cccc(Cl)c4)c(=O)n3n2)cc1`, the survival was inactive: 124%.

For `CCN1CCN(CCCNC(=O)Cn2nc(C)n3c(cc4cc(C)ccc43)c2=O)CC1`, the survival was inactive: 88%.

Take `CCc1ccc(S(=O)(=O)c2nnn3c2nc(N2CCCC(C)C2)c2cc(Cl)ccc23)cc1` (configuration not stated): the survival is inactive: 81%.

Take `COc1ccc2nc(N3CCN(C(=O)c4ccco4)CC3)sc2c1`: the survival is inactive: 92%.

As for `COc1ccc(OC)c(CNC(=O)C2COc3ccccc3C2)c1` (configuration not stated), the survival was inactive: 91%.

As to `CCOC(=O)Cc1ccc(NC(=O)N2CC(CC)Oc3ccccc32)cc1` (configuration not stated), the survival is inactive: 80%.

For `COc1ccc(-c2nc3cccc(C)n3c2NC(C)(C)C)cc1O`, the survival is inactive: 122%.

For the compound `NC(N)=N/N=C/c1ccco1`, the survival is inactive: 114%.

In the case of `COc1cccc(Cn2cc(S(=O)(=O)c3ccc(C)cc3)c(=O)c3cc4c(cc32)OCO4)c1`, the survival is inactive: 85%.
